According to a collection of fitness landscapes (doi:10.1016/j.celrep.2020.107928):
Over roughly 81,000 sequences, “one-hybrid fitness for binding NBS DNA” has its median near -0.1; the highest 2% begin near 0.36. The list shows a part of the results.

B1: Caulobacter ParB omega fusion; a variant is named by its letters at X, in order, B8GW30 (parent)
chain: MESVVVGEPGMSEGRRGLGRGLSALLGEVDAAPAQAPGEQLGGSREAPIEILQRNPDQPRRTFREEDLEDLSNSIREKGVLQPILVRPSPDTAGEYQIVAGERAWRAAQRAGLKTVPIMVRELDDLAVLEIGIIENVQRADLNVLEEALSYKVLMEKFERTQENIAQTIGKSXSHVANXMRLLXLPDEVQSYLVSGELTAXHARAIAAAADPVALAKQIIEGGLSVRETEALARKAPNLSAGKSKGGRPPRVKDTDTQALESDLSSVLGLDVSIDHRGSTGTLTITYATLEQLDDLCNRLTRGI

Variants of: B1
Assay: one-hybrid fitness for binding NBS DNA (the Noc-binding site; scaled: cognate 1, non-cognate 0); higher = stronger binding
Conditions: with NBS DNA site
Procedure, shortened: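 Bacterial one-hybrid selection in E. coli USO rpoZ- hisB- pyrF- with a HIS3 reporter carrying the site 19 bp from the promoter, screening Caulobacter ParB libraries with four specificity codons randomised (NNS). Cells grew 48 hours at 37°C on M9-minus-histidine plus 0.1 mM IPTG and 5 mM 3-AT. Plasmids before and after selection were Illumina-sequenced, three replicate libraries pooled, and variants under 10 reads dropped. Fitness is the log change in variant-to-wild-type read ratio, rescaled to cognate 1, non-cognate 0.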

Variant | one-hybrid fitness for binding NBS DNA
STRA | ≤ 0.2
CMLC | ≤ 0.2
GMKS | ≤ 0.2
PKTE | ≤ 0.2
CSYS | ≤ 0.2
GHMT | ≤ 0.2
GYNT | ≤ 0.2
GKTD | ≤ 0.2
NNKC | ≤ 0.2
QPWL | ≤ 0.2
SRIF | ≤ 0.2
RGVS | ≤ 0.2
YCTN | ≤ 0.2
IYLM | ≤ 0.2
NTNM | ≤ 0.2
QDAR | ≤ 0.2
AYSF | ≤ 0.2
EEFP | ≤ 0.2
TCFL | ≤ 0.2
PNPV | ≤ 0.2
GGDV | ≤ 0.2
TVLT | ≤ 0.2
ICRS | ≤ 0.2
QMSS | 0.376
DLIS | ≤ 0.2

Variant | one-hybrid fitness for binding NBS DNA
WRDW | ≤ 0.2
WAPM | ≤ 0.2
ASDE | ≤ 0.2
LING | ≤ 0.2
GYEL | ≤ 0.2
GGMT | ≤ 0.2
ALML | ≤ 0.2
HQYG | ≤ 0.2
MDWC | ≤ 0.2
FWQR | 0.203
ERSR | ≤ 0.2
SQIS | ≤ 0.2
KTEF | ≤ 0.2
HFIS | ≤ 0.2
RAKQ | ≤ 0.2
GPCD | ≤ 0.2
RMVM | ≤ 0.2
CIVG | ≤ 0.2
RAYE | ≤ 0.2
RPCG | ≤ 0.2
RKLV | ≤ 0.2
RCSD | ≤ 0.2
QMNF | ≤ 0.2
TSTW | ≤ 0.2
CRTC | ≤ 0.2

Variant | one-hybrid fitness for binding NBS DNA
YSNN | ≤ 0.2
HYIA | ≤ 0.2
PGWS | ≤ 0.2
FSIP | ≤ 0.2
VMRV | ≤ 0.2
RYSA | ≤ 0.2
MSRL | ≤ 0.2
DFEF | ≤ 0.2
CVRD | ≤ 0.2
MFTS | ≤ 0.2
QENM | ≤ 0.2
HPKW | ≤ 0.2
AWVK | ≤ 0.2
ATYE | ≤ 0.2
IGLR | ≤ 0.2
CIPT | ≤ 0.2
TLPD | ≤ 0.2
LCFD | ≤ 0.2
GVVD | ≤ 0.2
DMES | ≤ 0.2
YEKT | ≤ 0.2
RAWN | ≤ 0.2
AATL | ≤ 0.2
KTAT | ≤ 0.2
HNWA | ≤ 0.2

Variant | one-hybrid fitness for binding NBS DNA
YMYC | ≤ 0.2
LSYA | ≤ 0.2
LVFR | ≤ 0.2
RLID | ≤ 0.2
STKR | 0.254
RFCN | ≤ 0.2
NHSC | ≤ 0.2
SYEL | ≤ 0.2
LPKS | ≤ 0.2
AYSV | ≤ 0.2
YMLT | ≤ 0.2
TLRY | ≤ 0.2
QGHN | ≤ 0.2
ESFS | ≤ 0.2
HRLF | ≤ 0.2
AKHH | ≤ 0.2
RRFM | 0.266
STCA | ≤ 0.2
RHQM | ≤ 0.2
GNGK | ≤ 0.2
HNRK | ≤ 0.2
ANEE | ≤ 0.2
LVES | ≤ 0.2
IDIR | ≤ 0.2
PGYS | ≤ 0.2

Variant | one-hybrid fitness for binding NBS DNA
WRNP | ≤ 0.2
YQDF | ≤ 0.2
YNDM | ≤ 0.2
PMDV | ≤ 0.2
IDNP | ≤ 0.2
TLKH | ≤ 0.2
LFIS | ≤ 0.2
GNQT | ≤ 0.2
VWIG | ≤ 0.2
QHVN | ≤ 0.2
EFEC | ≤ 0.2
HFMS | ≤ 0.2
ALIL | ≤ 0.2
INPF | ≤ 0.2
VMVP | ≤ 0.2
KCDC | ≤ 0.2
CLSV | ≤ 0.2
TITQ | ≤ 0.2
YMVD | ≤ 0.2
RIFR | 0.243
FVSL | ≤ 0.2
RQAD | ≤ 0.2
RQQR | 0.475
NLET | ≤ 0.2
YAVR | ≤ 0.2

Variant | one-hybrid fitness for binding NBS DNA
FSNP | ≤ 0.2
SHQN | ≤ 0.2
FSAA | ≤ 0.2
EHQT | ≤ 0.2
KAKM | ≤ 0.2
CNNG | ≤ 0.2
PMYL | ≤ 0.2
DYLN | ≤ 0.2
RLDR | ≤ 0.2
CCLN | ≤ 0.2
PYEM | ≤ 0.2
SLQM | ≤ 0.2
WLFR | ≤ 0.2
AFLS | ≤ 0.2
MCII | ≤ 0.2
PMQH | ≤ 0.2
MFGA | ≤ 0.2
RHFL | ≤ 0.2
SQRN | ≤ 0.2
RDKD | ≤ 0.2
GFER | ≤ 0.2
YNMS | ≤ 0.2
GSRR | ≤ 0.2
YNTY | ≤ 0.2
ADGG | ≤ 0.2

Variant | one-hybrid fitness for binding NBS DNA
MVTH | ≤ 0.2
SSRH | ≤ 0.2
KLHS | ≤ 0.2
SGHV | ≤ 0.2
HHPS | ≤ 0.2
MPAV | ≤ 0.2
DRHC | ≤ 0.2
MCTC | ≤ 0.2
GPEG | ≤ 0.2
TPEK | ≤ 0.2
VVPL | ≤ 0.2
LYIG | ≤ 0.2
PYMR | ≤ 0.2
QIDR | 0.234
QDML | ≤ 0.2
KWPG | ≤ 0.2
SYVA | ≤ 0.2
DPKF | ≤ 0.2
RRHH | 0.525
RMIP | ≤ 0.2
RTED | ≤ 0.2
PAAR | ≤ 0.2
RKDC | ≤ 0.2
IKVW | ≤ 0.2
ARRH | ≤ 0.2

Variant | one-hybrid fitness for binding NBS DNA
PHSI | ≤ 0.2
NRHT | ≤ 0.2
HSML | ≤ 0.2
GTTW | ≤ 0.2
IRSN | ≤ 0.2
RCYK | ≤ 0.2
HLQN | ≤ 0.2
TRFH | ≤ 0.2
SDPF | ≤ 0.2
PTIW | ≤ 0.2
FASW | ≤ 0.2
YTNC | ≤ 0.2
HEIY | ≤ 0.2
KRWH | ≤ 0.2
HVCT | ≤ 0.2
RYKV | ≤ 0.2
NLMN | ≤ 0.2
TYTI | ≤ 0.2
WAGE | ≤ 0.2
HPGG | ≤ 0.2
